Test results as given in the supplement of paper PMC12230231.

Tested on: SIVsab (simian immunodeficiency virus of sabaeus monkeys), single-cycle GFP reporter, in CRFK cells
Assay: enrichment among uninfected cells over input (fold); higher = stronger restriction
Conditions: library: human / rhesus combinations
Experimental: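 Pools of CRFK cells expressing variants of the TRIM5α v1 loop were challenged with the single-cycle reporter, sorted by GFP and sequenced; mean of two replicates.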

Sequence	enrichment
MASGILVNVKEEVTCPICLELLTQPLSLDCGHSFCQACLTANHKKSMLDKGESSCPVCRISYQPENIRPNRHVANIVEKLREVKLSPEGQKVDHCARHGEKLLLFCQEDGKVICWLCERSQEHRGHHTFLTEEVAREYQVKLQAALEMLRQKQQEAEELEADIREEKASWKTQIQYDKTNVLADFEQLRDILDWEESNELQNLEKEEEDILKSLTNSETEMVQQTQSLRELISDLEHRLQGSVMELLQGVDGVIKRTENVTLKKPETFPKNQRRVFRAPDLKGMLEVFRELTDVRRYWVDVTVAPNNISCAVISEDKRQVSSPKPQIIYGARGTRFPSFTNFNYCTGILGSQSITSGKHYWEVDVSKKTAWILGVCAGFQPDAMCNIEKNENYQPKYGYWVIGLEEGVKCSAFQDSSFHTPSVPFIVPLSVIICPDRVGVFLDYEACTVSFFNITNHGFLIYKFSHCSFSQPVFPYLNPRKCGVPMTLCSPSS [human TRIM5α, 330-340 = GARGTRFPSFT]	1.29 ± 1.8
MASGILVNVKEEVTCPICLELLTQPLSLDCGHSFCQACLTANHKKSMLDKGESSCPVCRISYQPENIRPNRHVANIVEKLREVKLSPEGQKVDHCARHGEKLLLFCQEDGKVICWLCERSQEHRGHHTFLTEEVAREYQVKLQAALEMLRQKQQEAEELEADIREEKASWKTQIQYDKTNVLADFEQLRDILDWEESNELQNLEKEEEDILKSLTNSETEMVQQTQSLRELISDLEHRLQGSVMELLQGVDGVIKRTENVTLKKPETFPKNQRRVFRAPDLKGMLEVFRELTDVRRYWVDVTVAPNNISCAVISEDKRQVSSPKPQIIYQARGTLFTFQTFTNFNYCTGILGSQSITSGKHYWEVDVSKKTAWILGVCAGFQPDAMCNIEKNENYQPKYGYWVIGLEEGVKCSAFQDSSFHTPSVPFIVPLSVIICPDRVGVFLDYEACTVSFFNITNHGFLIYKFSHCSFSQPVFPYLNPRKCGVPMTLCSPSS [human TRIM5α, 330-340 = QARGTLFTFQTFT]	0.791 ± 0.25
MASGILVNVKEEVTCPICLELLTQPLSLDCGHSFCQACLTANHKKSMLDKGESSCPVCRISYQPENIRPNRHVANIVEKLREVKLSPEGQKVDHCARHGEKLLLFCQEDGKVICWLCERSQEHRGHHTFLTEEVAREYQVKLQAALEMLRQKQQEAEELEADIREEKASWKTQIQYDKTNVLADFEQLRDILDWEESNELQNLEKEEEDILKSLTNSETEMVQQTQSLRELISDLEHRLQGSVMELLQGVDGVIKRTENVTLKKPETFPKNQRRVFRAPDLKGMLEVFRELTDVRRYWVDVTVAPNNISCAVISEDKRQVSSPKPQIIYGARGTLFTFQSLTNFNYCTGILGSQSITSGKHYWEVDVSKKTAWILGVCAGFQPDAMCNIEKNENYQPKYGYWVIGLEEGVKCSAFQDSSFHTPSVPFIVPLSVIICPDRVGVFLDYEACTVSFFNITNHGFLIYKFSHCSFSQPVFPYLNPRKCGVPMTLCSPSS [human TRIM5α, 330-340 = GARGTLFTFQSLT]	0.225 ± 0.079

Same assay, conditions: library: insertions and deletions

Sequence	enrichment
MASGILVNVKEEVTCPICLELLTQPLSLDCGHSFCQACLTANHKKSMLDKGESSCPVCRISYQPENIRPNRHVANIVEKLREVKLSPEGQKVDHCARHGEKLLLFCQEDGKVICWLCERSQEHRGHHTFLTEEVAREYQVKLQAALEMLRQKQQEAEELEADIREEKASWKTQIQYDKTNVLADFEQLRDILDWEESNELQNLEKEEEDILKSLTNSETEMVQQTQSLRELISDLEHRLQGSVMELLQGVDGVIKRTENVTLKKPETFPKNQRRVFRAPDLKGMLEVFRELTDVRRYWVDVTVAPNNISCAVISEDKRQVSSPKPQIIYGARGTRYQTFVNQTFVNFNYCTGILGSQSITSGKHYWEVDVSKKTAWILGVCAGFQPDAMCNIEKNENYQPKYGYWVIGLEEGVKCSAFQDSSFHTPSVPFIVPLSVIICPDRVGVFLDYEACTVSFFNITNHGFLIYKFSHCSFSQPVFPYLNPRKCGVPMTLCSPSS [human TRIM5α, 5-codon duplication at 337]	0.4 ± 0.011
MASGILVNVKEEVTCPICLELLTQPLSLDCGHSFCQACLTANHKKSMLDKGESSCPVCRISYQPENIRPNRHVANIVEKLREVKLSPEGQKVDHCARHGEKLLLFCQEDGKVICWLCERSQEHRGHHTFLTEEVAREYQVKLQAALEMLRQKQQEAEELEADIREEKASWKTQIQYDKTNVLADFEQLRDILDWEESNELQNLEKEEEDILKSLTNSETEMVQQTQSLRELISDLEHRLQGSVMELLQGVDGVIKRTENVTLKKPETFPKNQRRVFRAPDLKGMLEVFRELTDVRRYWVDVTVAPNNISCAVISEDKRQVSSPKPQIIYGGTRYQTFVNFNYCTGILGSQSITSGKHYWEVDVSKKTAWILGVCAGFQPDAMCNIEKNENYQPKYGYWVIGLEEGVKCSAFQDSSFHTPSVPFIVPLSVIICPDRVGVFLDYEACTVSFFNITNHGFLIYKFSHCSFSQPVFPYLNPRKCGVPMTLCSPSS [human TRIM5α, 2-codon deletion at 331]	0.175 ± 0.17
MASGILVNVKEEVTCPICLELLTQPLSLDCGHSFCQACLTANHKKSMLDKGESSCPVCRISYQPENIRPNRHVANIVEKLREVKLSPEGQKVDHCARHGEKLLLFCQEDGKVICWLCERSQEHRGHHTFLTEEVAREYQVKLQAALEMLRQKQQEAEELEADIREEKASWKTQIQYDKTNVLADFEQLRDILDWEESNELQNLEKEEEDILKSLTNSETEMVQQTQSLRELISDLEHRLQGSVMELLQGVDGVIKRTENVTLKKPETFPKNQRRVFRAPDLKGMLEVFRELTDVRRYWVDVTVAPNNISCAVISEDKRQVSSPKPQIIYGARGQIIYGARGTRYQTFVNFNYCTGILGSQSITSGKHYWEVDVSKKTAWILGVCAGFQPDAMCNIEKNENYQPKYGYWVIGLEEGVKCSAFQDSSFHTPSVPFIVPLSVIICPDRVGVFLDYEACTVSFFNITNHGFLIYKFSHCSFSQPVFPYLNPRKCGVPMTLCSPSS [human TRIM5α, 8-codon duplication at 326]	0.462 ± 0.26
MASGILVNVKEEVTCPICLELLTQPLSLDCGHSFCQACLTANHKKSMLDKGESSCPVCRISYQPENIRPNRHVANIVEKLREVKLSPEGQKVDHCARHGEKLLLFCQEDGKVICWLCERSQEHRGHHTFLTEEVAREYQVKLQAALEMLRQKQQEAEELEADIREEKASWKTQIQYDKTNVLADFEQLRDILDWEESNELQNLEKEEEDILKSLTNSETEMVQQTQSLRELISDLEHRLQGSVMELLQGVDGVIKRTENVTLKKPETFPKNQRRVFRAPDLKGMLEVFRELTDVRRYWVDVTVAPNNISCAVISEDKRQVSSPKPQIQTFVNFNYCTGILGSQSITSGKHYWEVDVSKKTAWILGVCAGFQPDAMCNIEKNENYQPKYGYWVIGLEEGVKCSAFQDSSFHTPSVPFIVPLSVIICPDRVGVFLDYEACTVSFFNITNHGFLIYKFSHCSFSQPVFPYLNPRKCGVPMTLCSPSS [human TRIM5α, 9-codon deletion at 328]	1.4 ± 0.73
MASGILVNVKEEVTCPICLELLTQPLSLDCGHSFCQACLTANHKKSMLDKGESSCPVCRISYQPENIRPNRHVANIVEKLREVKLSPEGQKVDHCARHGEKLLLFCQEDGKVICWLCERSQEHRGHHTFLTEEVAREYQVKLQAALEMLRQKQQEAEELEADIREEKASWKTQIQYDKTNVLADFEQLRDILDWEESNELQNLEKEEEDILKSLTNSETEMVQQTQSLRELISDLEHRLQGSVMELLQGVDGVIKRTENVTLKKPETFPKNQRRVFRAPDLKGMLEVFRELTDVRRYWVDVTVAPNNISCAVISEDKRQVSSPKPTRYQTFVNFNYCTGILGSQSITSGKHYWEVDVSKKTAWILGVCAGFQPDAMCNIEKNENYQPKYGYWVIGLEEGVKCSAFQDSSFHTPSVPFIVPLSVIICPDRVGVFLDYEACTVSFFNITNHGFLIYKFSHCSFSQPVFPYLNPRKCGVPMTLCSPSS [human TRIM5α, 8-codon deletion at 326]	0.37 ± 0.058

± gives the standard deviation of the averaged measurements. Restriction of a single-cycle SIVsab GFP reporter by TRIM5α v1-loop variants in CRFK cells. Human variants: read share among cells still uninfected after two challenges over input, higher = gained restriction. Rhesus variants: share among infected cells over input, higher = lost restriction. Reporter dose not given per row. No active / inactive call per row; the paper calls a change when both replicates lie above its controls (mean + 2 SD of stop or wild-type variants, or the top frameshift score). Residues outside the varied loop are taken from Swiss-Prot. The paper reads the human single-substitution scores as noise; they and the rhesus combinations repeat poorly (rank correlation 0.3 to 0.4), indel scores repeat only for the top variants, rhesus substitutions well (0.9).
